Results on 13 compounds are retold here after patent publication US20080280910A1, “PHTHALAZINONE DERIVATIVES” (priority 2007, published 2008).

The structures appear in SMILES notation.

Usually IC50 stands for the concentration needed to halve the response being measured.

This test deals with Mammalian PARP, isolated from Hela cell nuclear extract (Homo sapiens, UniProt P09874). As to the kind of experiment: PARP inhibition assay (FlashPlate, 3H-NAD incorporation) to determine IC50. The following applies: mean IC50. In kind it is biochemical. In outline:
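PARP from HeLa nuclear extract was preincubated with compound (final 10–0.01 μM, 1% DMSO) for 10 min at 30 °C. Reactions were started with 5 μM NAD, ³H-NAD and 30mer double-stranded DNA oligos, run 45 min at 30 °C and quenched with acetic acid. Scintillation counts against control wells gave % activity and IC50.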
Consider `Nc1ccc(-c2cc(Cc3n[nH]c(=O)c4c3CCCC4)ccc2F)cc1` [Compound 256, 4-(4′-Amino-6-fluoro-biphenyl-3-ylmethyl)-5,6,7,8-tetrahydro-2H-phthalazin-1-one], for which the IC50 is 43 nM.

Consider `CCCCS(=O)(=O)Nc1ccc(-c2cc(Cc3n[nH]c(=O)c4c3CCCC4)ccc2F)cc1` [Compound 257], for which the IC50 was found to be 33 nM.

With `O=c1[nH]nc(Cc2ccc(F)c(-c3ccc(NS(=O)(=O)CC4CCCO4)cc3)c2)c2c1CCCC2` (stereo not shown) [Compound 258], the IC50 amounted to 2.6 nM.

Turning to `O=c1[nH]nc(Cc2ccc(F)c(-c3ccc(NS(=O)(=O)CC4CCOC4)cc3)c2)c2c1CCCC2` (stereo not shown) [Compound 259], the IC50 came to 2.6 nM. Then `O=c1[nH]nc(Cc2ccc(F)c(-c3ccc(NS(=O)(=O)CC4CCOCC4)cc3)c2)c2c1CCCC2` [Compound 260], with 2.3 nM. In the case of `O=c1[nH]nc(Cc2ccc(F)c(-c3ccc(NS(=O)(=O)CC4CCCCC4)cc3)c2)c2c1CCCC2` [Compound 261], the IC50 was found to be 7 nM. As for `O=c1[nH]nc(Cc2ccc(F)c(-c3ccc(NS(=O)(=O)CC4CCCC4)cc3)c2)c2c1CCCC2` [Compound 262], the IC50 was found to be 7.7 nM. Then `O=c1[nH]nc(Cc2ccc(F)c(-c3ccc(NS(=O)(=O)CC4CC4)cc3)c2)c2c1CCCC2` [Compound 263], with 3.1 nM. With `O=C(Cc1ccccc1)Nc1ccc(-c2cc(Cc3n[nH]c(=O)c4c3CCCC4)ccc2F)cc1` [Compound 266], the IC50 was 15 nM. Then `O=C(Cc1ccncc1)Nc1ccc(-c2cc(Cc3n[nH]c(=O)c4c3CCCC4)ccc2F)cc1` [Compound 267], with 25 nM; and `O=c1[nH]nc(Cc2ccc(F)c(-c3ccco3)c2)c2c1CCCC2` [Compound 268, 4-(4-Fluoro-3-furan-2-yl-benzyl)-5,6,7,8-tetrahydro-2H-phthalazin-1-one], with 49 nM; and `Nc1cccc2c(=O)[nH]nc(Cc3ccc(F)c(-c4ccco4)c3)c12` [Compound 269, 5-Amino-4-(4-fluoro-3-furan-2-yl-benzyl)-2H-phthalazin-1-one], with 11 nM. As for `Nc1cccc2c(Cc3ccc(F)c(-c4ccco4)c3)n[nH]c(=O)c12` [Compound 270, 8-Amino-4-(4-fluoro-3-furan-2-yl-benzyl)-2H-phthalazin-1-one], the 50% inhibitory concentration (IC50) is 1070 nM.
